From PubChem BioAssay (NCI)
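Five concentrations, 48 hours, 96-well plates. Abbreviation: GI50, concentration required for 50% inhibition of growth. TGI: total growth inhibition.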

What follows are compounds tested on NCI-H322M lung (assay: DTP human tumour cell line panel, 48 h).
`CCCCOc1ccc(NC(=O)c2sc3nc(C)ccc3c2N)cc1` showed a GI50 of 6.55 µM and a TGI of 27.8 µM. With `O=c1[nH]n(C(=S)N/N=C/c2ccccc2Cl)c(=O)c2ccccc12` the GI50 was 2.72 µM and the TGI was 9.56 µM. `N#CC1=C(c2cccs2)Nc2c(c(-c3ccccc3)nn2-c2ccccc2)C12C(=O)Nc1ccc(Br)cc12` (configuration not stated) showed a GI50 of 19.4 µM and a TGI of 47.6 µM. With `C=C(C)[C@@H]1CC[C@]2(C(=O)OC)CC[C@]3(C)[C@H](CC[C@@H]4[C@@]5(C)CC[C@H](N)C(C)(C)[C@@H]5CC[C@]43C)[C@@H]12` the GI50 was 1.7 µM and the TGI was 3.11 µM. For `C=C1CC[C@@H]2[C@]3(C)COC(c4cn[nH]c4-c4ccccc4)O[C@@H]3CC[C@@]2(C)[C@@H]1C/C=C1/C(=O)OCC1O` (some centres not stated), the GI50 was 16.3 µM and the TGI was 37.6 µM. `COc1ccc2[nH]c(O)c(N=NC(=O)COc3ccc(NC(=O)Nc4ccccc4)cc3)c2c1` gave a GI50 of 17.4 µM and a TGI of 46.2 µM.
